Laboratory results: PubChem BioAssay AID1963576 (National Center for Advancing Translational Sciences (NCATS), 2024)
About 60 (0.1%) of roughly 46,000 compounds were called active. Another 3% or so got no clear call; they are omitted. Calls come from the whole dose curve; as a rule, active = well fitted inhibition curve with a large enough effect; inconclusive = small, poorly fitted or top-dose-only effect; inactive = no such curve, though single readings can be large or run the other way. The list shows a part of the results.

Test: Primary qHTS assay for Inhibitors of ovarian cancer metastasis using an organotypic tumor microenvironment (TME) model.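 For activity change, negative = inhibition: plate controls were DMSO wells for no effect and tomatine positive control wells for full effect.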 Note: nearly all actives have a fitted effect of over 65% in size.
Settings: SKOV3ip1-GFP adhesion/invasion on 3D omental model, fluorescence; series mostly up to 45.8 µM; activity change, negative = inhibition: at the top concentration
Summary of the method: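 Adhesion/invasion was scored as fixed GFP-labeled SKOV3ip1 cell counts (488/509 nm), normalized to DMSO and tomatine controls. Cancer cells in serum-free medium, with four compound doses (0.36-46 umol/L), sat 2 hr at RT then 16 hr at 37 C on a 48 hr fibroblast/mesothelial/ECM culture.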

outcome, inactive:
Cc1ccc(-c2noc(-c3nnn(-c4ccc(Br)cc4F)c3C)n2)cc1, COc1ccc(OC)c(CCNC(=O)Cn2nc(C)n3c(cc4sccc43)c2=O)c1, CCC1Oc2ccccc2N(CC(=O)NCCc2ccc(OC)c(OC)c2)C1=O (configuration not stated), Cc1ccc(Nc2ncc(C(=O)Nc3ccc(F)cc3F)c3ccccc23)cc1Cl

Activity change, negative = inhibition, inactive:
Cc1nnc(N2CCC(C(=O)NC(C)C)CC2)c2nn(-c3ccccc3)c(C)c12 -0.366%, Clc1ccccc1CN1CCc2nc(N3CCN(c4ncccn4)CC3)ncc2C1 -6.33%, CC(=O)Nc1ccc(C(=O)Nc2ccc3c(c2)N(C2CCCC2)C(=O)c2ccccc2S3)cc1 -5.1%, Cc1ccccc1CNCc1c(C(=O)O)c(C)n(Cc2ccc(F)cc2Cl)c1C -6.98%, COc1ccc(-n2ncc3c2ncn2nc(Cc4ccccc4)nc32)cc1 -0.823%, Cc1cccc(CSc2nnc(CCCCCN)o2)c1 12.2%, Cc1ccc(C)c(NC(=O)c2nnn(Cc3ccc(F)cc3Cl)c2N)c1 -0.327%, Cn1nc(-c2ccccc2F)c2cc(C(=O)NCc3cccc(Cl)c3)sc21 37.5%, Cc1cc(C)cc(NC(=O)c2cc(S(=O)(=O)N3CCCC3)ccc2F)c1 1.96%, Cc1nc(-c2cccc(S(=O)(=O)N3CCC(C(=O)NCc4ccccc4Cl)CC3)c2)no1 20.9%, CCc1c(C)sc2c1CCN(C(=O)Nc1cc(C)ccc1C)C2c1ccc(OC)cc1 (configuration not stated) -0.589%, CC[C@H](C)C(=O)O[C@H]1C[C@H](O)C=C2C=C[C@H](C)[C@H](CC[C@@H](O)C[C@@H](O)CC(=O)O)[C@H]21 -13.6%, COc1ccc(-n2ncc(C(=O)NCCN3CCOCC3)c2C2CCN(C(=O)OC(C)(C)C)CC2)cc1 -4.5%, COc1ccc(CCNS(=O)(=O)c2ccc(N3CCCCS3(=O)=O)cc2)cc1 -10%, O=C(c1cc2c(s1)-c1ccccc1OC2)N1CCN(c2ccc(F)cc2)CC1 3.11%, CCc1ccc(C=C2SC(=S)NC2=O)cc1 -4.26%, COc1cc(OC)c(NC(=O)N2CCc3cc(S(=O)(=O)N4CCC(C)CC4)ccc32)cc1Cl 19.3%, O=c1oc2ccc3ccccc3c2cc1-c1nnc(Nc2cccc(C(F)(F)F)c2)s1 -5.41%, O=C(NCCc1ccccc1)c1cnc2sc(N3CCCCC3)nn2c1=O -5.07%, CC(=O)c1cccc(NC(=O)C2CCN(S(=O)(=O)c3ccccc3)CC2)c1 0.336%, COc1ccc(CNC(=O)c2nn(C)c3c2CS(=O)(=O)c2ccccc2-3)cc1 -3.34%, CCC1CCCCN1S(=O)(=O)c1cc2c(cc1C)NC(=O)CO2 (configuration not stated) 0.574%, Cc1ccc(CN(C(=O)COc2ccc([N+](=O)[O-])cc2)c2ccccn2)o1 2.87%
